Measured values from PubChem BioAssay AID588342 (National Center for Advancing Translational Sciences (NCATS), 2011).
The campaign covered roughly 360,000 compounds. About 25,000 (6.9%) were called active. The shares of active, inactive and inconclusive entries below differ from those in the screen. Calls come from the whole dose curve; as a rule, active = well fitted inhibition curve with a large enough effect; inconclusive = small, poorly fitted or top-dose-only effect; inactive = flat fitted curve, though single readings scatter. Where the call is inconclusive, the potency comes from a doubtful curve fit.

Molecular target: Luciferin 4-monooxygenase (Photinus pyralis) (UniProt P08659)
Chain of UniProt P08659 (P08659 whole entry, looked up): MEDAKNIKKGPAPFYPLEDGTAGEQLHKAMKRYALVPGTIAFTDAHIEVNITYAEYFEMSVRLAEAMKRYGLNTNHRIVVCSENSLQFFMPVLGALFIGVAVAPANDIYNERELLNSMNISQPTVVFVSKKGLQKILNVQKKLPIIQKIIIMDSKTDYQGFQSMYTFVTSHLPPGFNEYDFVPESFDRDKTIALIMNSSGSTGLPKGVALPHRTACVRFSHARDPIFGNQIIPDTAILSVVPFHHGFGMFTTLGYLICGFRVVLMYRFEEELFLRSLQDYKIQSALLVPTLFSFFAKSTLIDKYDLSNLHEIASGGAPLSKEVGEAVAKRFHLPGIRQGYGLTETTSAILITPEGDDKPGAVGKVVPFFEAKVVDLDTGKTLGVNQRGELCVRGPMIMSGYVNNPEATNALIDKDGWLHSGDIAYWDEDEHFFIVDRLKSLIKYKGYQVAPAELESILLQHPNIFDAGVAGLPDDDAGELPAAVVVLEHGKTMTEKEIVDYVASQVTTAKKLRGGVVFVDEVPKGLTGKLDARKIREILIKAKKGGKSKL
Test: qHTS profiling assay for firefly luciferase inhibitor/activator using purifed enzyme and Km concentrations of substrates (counterscreen for miR-21 project); note: nearly all actives have a fitted effect of over 55% in size;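 for activity change, negative = inhibition: plate controls were vehicle for no effect and reference inhibitor for full effect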
Conditions: purified FLuc, luminescence inhibition; series mostly up to 57.5 µM; activity change, negative = inhibition: at the top concentration
Procedure, shortened: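 Biochemical qHTS of compounds, final roughly 60 µM downward over six points, against 10 nM purified firefly luciferase using Km concentrations of substrates (10 uM D-luciferin, 10 uM ATP) in Tris acetate pH 7.5 buffer; luminescence output.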
Potency is the fitted concentration of half-maximal effect; tags give direction and shape of the fitted curve.

Row | Compound | Potency | activity change, negative = inhibition
1 | COC(=O)c1c(NC(=O)c2nn(C)cc2Cl)sc2c1CCCC2 | inconclusive: 5.36 µM [inhibitor, partial curve, poor fit] | 
2 | Cc1cc([N+](=O)[O-])ccc1NC(=O)c1cc2ccccc2o1 | inconclusive: 6.01 µM [inhibitor, partial curve, poor fit] | 
3 | O=C(/C=C\c1ccc(-c2cccc([N+](=O)[O-])c2)o1)N1CCOCC1 | inconclusive: 37.9 µM [inhibitor, single point] | 
4 | O=C(c1cc2cc(F)ccc2[nH]1)N1CCc2ccccc21 | inconclusive: 1.07 µM [inhibitor, full curve] | 
5 | O=C(N/N=C/c1ccncc1)c1ccc(NS(=O)(=O)c2cccs2)cc1 | inconclusive: 30.1 µM [inhibitor, single point] | 
6 | Nc1nc(SCC(=O)Nc2ccc([N+](=O)[O-])cc2)[nH]c(=O)c1NC(=O)c1ccc(Br)o1 | inconclusive: 30.1 µM [inhibitor, partial curve, poor fit] | 
7 | COc1cccc(NC(=O)C(=O)N/N=C/c2cc(C)n(-c3ccc(Cl)c(Cl)c3)c2C)c1 | inconclusive: 37.9 µM [inhibitor, partial curve, poor fit] | 
8 | COC(=O)c1cccc(Nc2ncnc3sccc23)c1 | inconclusive: 16.9 µM [inhibitor, partial curve] | 
9 | CCCCCCCCCC(=O)Nn1cnc2ccccc2c1=O | inconclusive: 37.9 µM [inhibitor, partial curve, poor fit] | 
10 | CCn1c(SCCOc2ccccc2F)nc2ccccc21 | inconclusive: 21.3 µM [inhibitor, partial curve, poor fit] | 
11 | COc1cc(OC)cc(C(=O)Nc2ccc(Nc3ccccc3)cc2)c1 | inconclusive: 26.9 µM [inhibitor, partial curve, poor fit] | 
12 | Cc1cccnc1Nc1nc(-c2ccc(O)c(O)c2)cs1 | active: 16.9 µM | 
13 | O=C(Nc1ccccc1)C1=C[C@@H](c2ccccc2)C[C@@H](OCc2ccc(CO)cc2)O1 | inconclusive: 19 µM [inhibitor, partial curve] | 
14 | COc1ccc(C(=O)N(Cc2ccc(C(C)C)cc2)C2CCS(=O)(=O)C2)cc1 (configuration not stated) |  | inactive: -4.51%
15 | O=C(CCSc1ccc(Cl)cc1)NC12CC3CC(CC(C3)C1)C2 | inconclusive: 23.9 µM [inhibitor, partial curve] | 
16 | COc1cc(NC(=S)NC(C)=O)ccc1NC(=O)C(C)C | inconclusive: 37.9 µM [inhibitor, partial curve, poor fit] | 
17 | CC1=C(C)CC(C(=O)NCc2c(F)cccc2Cl)C(C(=O)O)C1 (configuration not stated) |  | inactive: 1.17%
18 | CC(C)c1ccc(S(=O)(=O)/N=C2/C=C(Sc3ncn[nH]3)C(=O)c3ccccc32)cc1 | inconclusive: 33.8 µM [inhibitor, partial curve, poor fit] | 
19 | COc1ccc2oc(C(=O)OCC(=O)NCC3CCCO3)c(C)c2c1 (configuration not stated) | inconclusive: 33.8 µM [inhibitor, partial curve, poor fit] | 
20 | Cc1ccc2nc(N/N=C/c3ccccc3C#N)nc(-c3ccccc3)c2c1 | active: 10.7 µM | 
21 | COc1ccc(NC(=O)c2cc(-c3ccco3)nc3ccccc23)cc1S(=O)(=O)N1CCOCC1 | inconclusive: 30.1 µM [inhibitor, partial curve, poor fit] | 
22 | Cn1cc(Cl)c(/C(N)=N/OC(=O)c2ccccc2C(F)(F)F)n1 | active: 12 µM | 
23 | Cc1ccc(Oc2ccc(-c3nc(N)nc(N)n3)cc2)cc1C | inconclusive: 37.9 µM [inhibitor, partial curve, poor fit] | 

Row | Compound | Potency | activity change, negative = inhibition
24 | COc1ccc(N2C(=O)c3ccccc3NC2c2ccc(OC)c(CSc3ccccn3)c2)cc1 (configuration not stated) | inconclusive: 23.9 µM [inhibitor, partial curve, poor fit] | 
25 | Cc1cc(SCn2nnc3ccccc3c2=O)nc2ccccc12 | inconclusive: 37.9 µM [inhibitor, partial curve, poor fit] | 
26 | OC(COc1ccccc1)Cn1c2ccccc2c2ccccc21 (configuration not stated) | inconclusive: 26.9 µM [inhibitor, single point] | 
27 | CC(=O)N1CCc2cc(N=NC3=C(O)CCCC3=O)ccc21 | active: 15.1 µM | 
28 | CC(C)(C)C(=O)Nc1ccc(C(=O)Nc2cccc(Oc3ccc(C(=O)O)c(C(=O)O)c3)c2)cc1 | active: 1.51 µM | 
29 | COC(=O)Nc1ccc2c(c1)OCO2 | inconclusive: 26.9 µM [inhibitor, single point] | 
30 | COC(=O)C(CC(=O)c1ccccc1)CC(=O)c1ccccc1 | inconclusive: 23.9 µM [inhibitor, partial curve, poor fit] | 
31 | COC(=O)c1c(NC(=O)C2C3CCC(C3)C2C(=O)O)sc2c1CCCCC2 (configuration not stated) | inconclusive: 26.9 µM [inhibitor, single point] | 
32 | COc1cccc(OCCOc2cccc(/C=N/n3cnnc3)c2)c1 | inconclusive: 23.9 µM [inhibitor, single point] | 
33 | O=C(Nc1c(C(=O)Nc2ccc(F)cc2)oc2ccccc12)c1ccccc1F | inconclusive: 10.7 µM [inhibitor, partial curve, poor fit] | 
34 | Cc1ccc(C(C)C)c(OCC(=O)Nc2ccc(S(=O)(=O)Nc3onc(C)c3C)cc2)c1 | inconclusive: 10.7 µM [inhibitor, partial curve] | 
35 | CC(NC(=O)c1ccc(C(C)(C)C)cc1)C(=O)O (configuration not stated) | inconclusive: 23.9 µM [inhibitor, single point] | 
36 | CCn1c(SCC(=O)Nc2cccc(NC(=O)c3cccs3)c2)nnc1-c1ccncc1 | inconclusive: 26.9 µM [inhibitor, partial curve, poor fit] | 
37 | O=C(N/N=C\c1cn(-c2ccccc2)nc1-c1ccccc1)c1ccc(Br)o1 | inconclusive: 12 µM [inhibitor, partial curve] | 
38 | COc1ccc(OCc2nc(N)nc(Nc3ccc(C)cc3)n2)cc1 | inconclusive: 10.7 µM [inhibitor, partial curve] | 
39 | N/C(=N\OC(=O)CCCN1C(=O)c2ccccc2C1=O)c1ccc(Cl)cc1 |  | inactive: -3.99%
40 | Fc1cccc(F)c1/C=N/Nc1ccccn1 | inconclusive: 8.49 µM [inhibitor, partial curve] | 
41 | CCOc1ccc(OCCC(=O)N(CC)CC(=O)Nc2c(F)cccc2F)cc1 | inconclusive: 37.9 µM [inhibitor, single point] | 
42 | CC(=O)Nc1cccc(CCc2nc3ccccc3[nH]2)c1 | inconclusive: 26.9 µM [inhibitor, single point] | 
43 | Cc1ccccc1-c1noc(C(C)NC(=O)c2ccco2)n1 (configuration not stated) | inactive | 
44 | c1ccc(CN2CCN(c3nc4ccccc4c4ccccc34)CC2)cc1 |  | inactive: -0.0644%
45 | O=C(NCc1csc(-c2cccs2)n1)C1CCCCC1 | inconclusive: 23.9 µM [inhibitor, single point] | 
46 | O=C(NCC1CCCO1)C(=O)c1c[nH]c2ccccc12 (configuration not stated) | inconclusive: 37.9 µM [inhibitor, partial curve, poor fit] | 

Row | Compound | Potency | activity change, negative = inhibition
47 | Cc1nc2ccccn2c1C(=O)NCc1ccc2c(c1)OCO2 |  | inactive: 4.93%
48 | O=C(Nc1nnc(C2CC2)s1)C1Cc2ccccc2CN1S(=O)(=O)c1ccccc1F (configuration not stated) | inconclusive: 23.9 µM [inhibitor, partial curve] | 
49 | COc1ccc(CN2CCNC(=O)C2CC(=O)NC2CCCCCCC2)cc1C (configuration not stated) |  | inactive: 2.42%
50 | O=C1OC(c2ccc(Br)cc2)=N/C1=C\N1CCCCC1 | inconclusive: 2.39 µM [inhibitor, full curve] | 
51 | COc1ccc(C(=O)NCC(=O)OCCCOC(=O)CNC(=O)c2ccc(OC)c(OC)c2)cc1OC |  | inactive: -0.902%
52 | COc1ccccc1NCC(=O)NNCC(=O)Nc1ccc(F)c(Cl)c1 |  | inactive: -3.83%
53 | O=C1C(Cl)=C(NCC2CCCO2)C(=O)N1c1ccccc1 (configuration not stated) |  | inactive: -15.4%
54 | CN(CCC1CCCCO1)C(=O)CCc1nnc(C2CCCCC2)o1 (configuration not stated) | inconclusive: 23.9 µM [inhibitor, single point] | 
55 | Cc1cccc(N2CCN(C(=O)CSCc3ccc(F)cc3)CC2)c1C | inconclusive: 16.9 µM [inhibitor, partial curve] | 
56 | Cc1[nH]c2ccccc2c1/C=N/Nc1cccc(C(=O)O)c1 | active: 2.69 µM | 
57 | CCN1CCN(c2cc(C)c3cc(NC(=O)c4ccc(C)c(C)c4)ccc3n2)CC1 | active: 21.3 µM | 
58 | CCN(C(=O)COC(=O)c1cc(-c2ccc3cc(OC)ccc3c2)nc2ccccc12)C1CCS(=O)(=O)C1 (configuration not stated) | active: 0.849 µM | 
59 | O=c1cc(CCl)[nH]c2nc3ccccc3n12 | inconclusive: 19 µM [inhibitor, partial curve, poor fit] | 
60 | Cc1ccc(Cl)c2sc(NC(=O)CS(=O)(=O)c3ccc(Cl)cc3)nc12 | inconclusive: 9.53 µM [inhibitor, partial curve] | 
61 | Cn1cccc1CNC(=O)Nc1ccc(Cl)c(Cl)c1 | active: 8.49 µM | 
62 | COc1ccc(NC(=O)c2csc(Cc3ccc(Cl)cc3)n2)cc1 | active: 23.9 µM | 
63 | CSc1ccccc1C(=O)Nc1cccc(C)c1 | inconclusive: 23.9 µM [inhibitor, partial curve, poor fit] | 
64 | O=C(Nc1ccnc(=O)[nH]1)c1sc2ccccc2c1Cl | inconclusive: 9.53 µM [inhibitor, partial curve] | 
65 | Cc1ccc(NC(=O)N2CCCCC2)cc1NC(=O)N1CCCCC1 | inconclusive: 30.1 µM [inhibitor, partial curve, poor fit] | 
66 | COc1ccccc1C(=O)NNC(=O)c1ccccc1Br | inconclusive: 21.3 µM [inhibitor, partial curve, poor fit] | 
67 | COc1ccc(/C=C/C(=O)C2(O)CCCCC2)cc1 | inconclusive: 30.1 µM [inhibitor, single point] | 
